The supplement of paper PMC8728848
This is one part of the list.

Legend:
Experiment in all cases: glycan array binding signal (z-score within array); higher = stronger binding
Settings in all cases: glycan notation: IUPAC condensed, linker removed
Neu5Ac(a2-3)Gal = target: Neu5Ac(a2-3)Gal
Method in brief: (§1)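 Glycan array binding is given as a within-array Z-score, which can be read as non-binding when negative. The arrays, 3228 of them, came from the Consortium for Functional Glycomics database and were retained only where the protein sequence was available. Z-scores were averaged across arrays of the same protein sequence at different concentrations or buffers and across linkers.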

[1] = target: Neu5Ac(a2-3)Gal(b1-3)GalNAc
Method in brief: as §1

[2] = target: Neu5Ac(a2-3)Gal(b1-3)GalNAc(b1-3)Gal(a1-4)Gal(b1-4)Glc
Method in brief: as §1

[3] = target: Neu5Ac(a2-3)Gal(b1-3)GalNAc(b1-4)[Neu5Ac(a2-3)]Gal(b1-4)Glc
Method in brief: as §1

[4] = target: Neu5Ac(a2-3)Gal(b1-3)GalNAc(b1-4)[Neu5Ac(a2-8)Neu5Ac(a2-3)]Gal(b1-4)Glc
Method in brief: as §1

[5] = target: Neu5Ac(a2-3)Gal(b1-3)GalNAc6S
Method in brief: as §1

[6] = target: Neu5Ac(a2-3)Gal(b1-3)GlcNAc
Method in brief: as §1

[7] = target: Neu5Ac(a2-3)Gal(b1-3)GlcNAc(b1-2)Man
Method in brief: as §1

[8] = target: Neu5Ac(a2-3)Gal(b1-3)GlcNAc(b1-2)Man(a1-3)[GlcNAc(b1-4)][Neu5Ac(a2-3)Gal(b1-3)GlcNAc(b1-2)Man(a1-6)]Man(b1-4)GlcNAc(b1-4)GlcNAc
Method in brief: as §1

[9] = target: Neu5Ac(a2-3)Gal(b1-3)GlcNAc(b1-2)Man(a1-3)[Neu5Ac(a2-3)Gal(b1-3)GlcNAc(b1-2)Man(a1-6)]Man(b1-4)GlcNAc(b1-4)GlcNAc
Method in brief: as §1

[10] = target: Neu5Ac(a2-3)Gal(b1-3)GlcNAc(b1-3)Gal(b1-3)GlcNAc
Method in brief: as §1

[11] = target: Neu5Ac(a2-3)Gal(b1-3)GlcNAc(b1-3)Gal(b1-4)GlcNAc
Method in brief: as §1

[12] = target: Neu5Ac(a2-3)Gal(b1-3)GlcNAc(b1-3)GalNAc
Method in brief: as §1

[13] = target: Neu5Ac(a2-3)Gal(b1-3)GlcNAc(b1-4)Gal(b1-4)Glc
Method in brief: as §1

[14] = target: Neu5Ac(a2-3)Gal(b1-3)GlcNAc(b1-6)GalNAc
Method in brief: as §1

[15] = target: Neu5Ac(a2-3)Gal(b1-3)GlcNAc6S
Method in brief: as §1

[16] = target: Neu5Ac(a2-3)Gal(b1-3)[Fuc(a1-4)]GlcNAc
Method in brief: as §1

[17] = target: Neu5Ac(a2-3)Gal(b1-3)[Fuc(a1-4)]GlcNAc(b1-3)Gal(b1-3)[Fuc(a1-4)]GlcNAc
Method in brief: as §1

[18] = target: Neu5Ac(a2-3)Gal(b1-3)[Fuc(a1-4)]GlcNAc(b1-3)Gal(b1-4)[Fuc(a1-3)]GlcNAc
Method in brief: as §1

[19] = target: Neu5Ac(a2-3)Gal(b1-3)[GlcNAc(b1-6)]GalNAc
Method in brief: as §1

[20] = target: Neu5Ac(a2-3)Gal(b1-3)[Neu5Ac(a2-6)]GalNAc
Method in brief: as §1

[21] = target: Neu5Ac(a2-3)Gal(b1-3)[Neu5Ac(a2-6)]GlcNAc(b1-3)[Fuc(a1-3)[Gal(b1-4)]GlcNAc(b1-6)]Gal(b1-4)Glc
Method in brief: as §1

[22] = target: Neu5Ac(a2-3)Gal(b1-3)]Neu5Ac(a2-3)Gal(b1-4)]GlcNAc
Method in brief: as §1

Neu5Ac(a2-3)Gal(b1-4)Glc = target: Neu5Ac(a2-3)Gal(b1-4)Glc
Method in brief: as §1

[23] = target: Neu5Ac(a2-3)Gal(b1-4)GlcNAc
Method in brief: as §1

[24] = target: Neu5Ac(a2-3)Gal(b1-4)GlcNAc(b1-2)Man
Method in brief: as §1

[25] = target: Neu5Ac(a2-3)Gal(b1-4)GlcNAc(b1-2)Man(a1-3)[GlcNAc(b1-4)][Neu5Ac(a2-3)Gal(b1-4)GlcNAc(b1-2)Man(a1-6)]Man(b1-4)GlcNAc(b1-4)GlcNAc
Method in brief: as §1

[26] = target: Neu5Ac(a2-3)Gal(b1-4)GlcNAc(b1-2)Man(a1-3)[Neu5Ac(a2-3)Gal(b1-4)GlcNAc(b1-2)Man(a1-6)]Man(b1-4)GlcNAc(b1-4)GlcNAc
Method in brief: as §1

[27] = target: Neu5Ac(a2-3)Gal(b1-4)GlcNAc(b1-2)Man(a1-3)[Neu5Ac(a2-3)Gal(b1-4)GlcNAc(b1-2)Man(a1-6)]Man(b1-4)GlcNAc(b1-4)[Fuc(a1-6)]GlcNAc
Method in brief: as §1

[28] = target: Neu5Ac(a2-3)Gal(b1-4)GlcNAc(b1-2)Man(a1-3)[Neu5Ac(a2-6)Gal(b1-4)GlcNAc(b1-2)Man(a1-6)]Man(b1-4)GlcNAc(b1-4)GlcNAc
Method in brief: as §1

[29] = target: Neu5Ac(a2-3)Gal(b1-4)GlcNAc(b1-2)[Neu5Ac(a2-3)Gal(b1-4)GlcNAc(b1-4)]Man(a1-3)[GlcNAc(b1-4)][Neu5Ac(a2-3)Gal(b1-4)GlcNAc(b1-2)[Neu5Ac(a2-3)Gal(b1-4)GlcNAc(b1-6)]Man(a1-6)]Man(b1-4)GlcNAc(b1-4)GlcNAc
Method in brief: as §1

[30] = target: Neu5Ac(a2-3)Gal(b1-4)GlcNAc(b1-2)[Neu5Ac(a2-3)Gal(b1-4)GlcNAc(b1-4)]Man(a1-3)[GlcNAc(b1-4)][Neu5Ac(a2-3)Gal(b1-4)GlcNAc(b1-4)Man(a1-6)]Man(b1-4)GlcNAc(b1-4)GlcNAc
Method in brief: as §1

[31] = target: Neu5Ac(a2-3)Gal(b1-4)GlcNAc(b1-2)[Neu5Ac(a2-3)Gal(b1-4)GlcNAc(b1-6)]Man(a1-6)[Neu5Ac(a2-3)Gal(b1-4)GlcNAc(b1-2)Man(a1-3)]Man(b1-4)GlcNAc(b1-4)GlcNAc
Method in brief: as §1

[32] = target: Neu5Ac(a2-3)Gal(b1-4)GlcNAc(b1-2)[Neu5Ac(a2-3)Gal(b1-4)GlcNAc(b1-6)]Man(a1-6)[Neu5Ac(a2-3)Gal(b1-4)GlcNAc(b1-2)Man(a1-3)][GlcNAc(b1-4)]Man(b1-4)GlcNAc(b1-4)GlcNAc
Method in brief: as §1

[33] = target: Neu5Ac(a2-3)Gal(b1-4)GlcNAc(b1-3)Gal
Method in brief: as §1

[34] = target: Neu5Ac(a2-3)Gal(b1-4)GlcNAc(b1-3)Gal(b1-3)GlcNAc
Method in brief: as §1

[35] = target: Neu5Ac(a2-3)Gal(b1-4)GlcNAc(b1-3)Gal(b1-4)GlcNAc
Method in brief: as §1

[36] = target: Neu5Ac(a2-3)Gal(b1-4)GlcNAc(b1-3)Gal(b1-4)GlcNAc(b1-2)Man(a1-3)[Neu5Ac(a2-3)Gal(b1-4)GlcNAc(b1-3)Gal(b1-4)GlcNAc(b1-2)Man(a1-6)]Man(b1-4)GlcNAc(b1-4)GlcNAc
Method in brief: as §1

[37] = target: Neu5Ac(a2-3)Gal(b1-4)GlcNAc(b1-3)Gal(b1-4)GlcNAc(b1-3)Gal(b1-4)GlcNAc
Method in brief: as §1

[38] = target: Neu5Ac(a2-3)Gal(b1-4)GlcNAc(b1-3)Gal(b1-4)GlcNAc(b1-3)Gal(b1-4)GlcNAc(b1-2)Man(a1-3)[Neu5Ac(a2-3)Gal(b1-4)GlcNAc(b1-3)Gal(b1-4)GlcNAc(b1-3)Gal(b1-4)GlcNAc(b1-2)Man(a1-6)]GalNAc
Method in brief: as §1

[39] = target: Neu5Ac(a2-3)Gal(b1-4)GlcNAc(b1-3)Gal(b1-4)GlcNAc(b1-3)GalNAc
Method in brief: as §1

[40] = target: Neu5Ac(a2-3)Gal(b1-4)GlcNAc(b1-3)Gal(b1-4)GlcNAc(b1-3)[Neu5Ac(a2-3)Gal(b1-4)GlcNAc(b1-3)Gal(b1-4)GlcNAc(b1-6)]GalNAc
Method in brief: as §1

[41] = target: Neu5Ac(a2-3)Gal(b1-4)GlcNAc(b1-3)Gal(b1-4)GlcNAc(b1-6)[Gal(b1-3)]GalNAc
Method in brief: as §1

[42] = target: Neu5Ac(a2-3)Gal(b1-4)GlcNAc(b1-3)Gal(b1-4)[Fuc(a1-3)]GlcNAc
Method in brief: as §1

[43] = target: Neu5Ac(a2-3)Gal(b1-4)GlcNAc(b1-3)GalNAc
Method in brief: as §1

B1: PX9961A-pdi-456-24-456 (Parabacteroides distasonis) (protein)
chain: KTSSTQLPTIDAISSVADLTNAVNGVYEQQATEVGSYGAEFTLLADLRSGDFQSISTVNHAGPMYRYQTGKNDEMVYSFYKLFYNSLARLNNVLAAAENLEGADVDILKGELYAMRALYHFDLARVFAKLPSTTDMNDLGIVLSTEVYPTDYIGTRATLQQTYDQILKDIETALPLLSKDKQTGHINYWGALAIRARAYLYLEKNKEALADCKEIIASSPYKLYTRDEYIGAWDKEGTNEAIFEILVTPNYNAQRNSIGYFTHASGYGECAATESFLEELAKHPGDIRTELFAKETDNGYDGTYPQKYKGRDGQIYVNNPKVVRLSEVYLIAAEAALKAGDTSAAAGYMNTLRKNRIENYTDVASITLDDILLERRLELFTEGHTAWDAWRNGKSVNNKFVGEVKPGDYRTIMAIPIGEITVSRGQLIQNPGY
In the case of B1, the “glycan array binding signal (z-score)” value (Neu5Ac(a2-3)Gal) is reported as 0.205, the “glycan array binding signal (z-score)” value [1] is reported as -0.099 and the “glycan array binding signal (z-score)” value [2] is reported as 0.851. For the same binder, the “glycan array binding signal (z-score)” value [3] was -0.189, the “glycan array binding signal (z-score)” value [4] was 0.175 and the “glycan array binding signal (z-score)” value [5] was 0.007. For the same binder, the “glycan array binding signal (z-score)” value [6] was -0.355, the “glycan array binding signal (z-score)” value [7] was -0.384 and the “glycan array binding signal (z-score)” value [8] was -0.511. The “glycan array binding signal (z-score)” value [9] was -0.512, the “glycan array binding signal (z-score)” value [10] was -0.139 and the “glycan array binding signal (z-score)” value [11] was -0.604. For the same binder, the “glycan array binding signal (z-score)” value [12] was -0.259, the “glycan array binding signal (z-score)” value [13] was -0.437 and the “glycan array binding signal (z-score)” value [14] was 0.343. The “glycan array binding signal (z-score)” value [15] was 0.048, the “glycan array binding signal (z-score)” value [16] was -0.184 and the “glycan array binding signal (z-score)” value [17] was -0.513. For the same binder, the “glycan array binding signal (z-score)” value [18] was -0.508, the “glycan array binding signal (z-score)” value [19] was -0.29 and the “glycan array binding signal (z-score)” value [20] was -0.301. The “glycan array binding signal (z-score)” value [21] was 0.108, the “glycan array binding signal (z-score)” value [22] was -0.256 and the “glycan array binding signal (z-score)” value (Neu5Ac(a2-3)Gal(b1-4)Glc) was 0.082. The “glycan array binding signal (z-score)” value [23] was 0.195, the “glycan array binding signal (z-score)” value [24] was -0.345 and the “glycan array binding signal (z-score)” value [25] was 0.203. The “glycan array binding signal (z-score)” value [26] was 0.141, the “glycan array binding signal (z-score)” value [27] was -0.022 and the “glycan array binding signal (z-score)” value [28] was -0.339. For the same binder, the “glycan array binding signal (z-score)” value [29] was 0.07, the “glycan array binding signal (z-score)” value [30] was 0.376 and the “glycan array binding signal (z-score)” value [31] was 0.601. The “glycan array binding signal (z-score)” value [32] was -0.585, the “glycan array binding signal (z-score)” value [33] was -0.59 and the “glycan array binding signal (z-score)” value [34] was -0.238. The “glycan array binding signal (z-score)” value [35] was 0.369, the “glycan array binding signal (z-score)” value [36] was -0.486 and the “glycan array binding signal (z-score)” value [37] was -0.385. The “glycan array binding signal (z-score)” value [38] was 0.105, the “glycan array binding signal (z-score)” value [39] was -0.267 and the “glycan array binding signal (z-score)” value [40] was -0.383. The “glycan array binding signal (z-score)” value [41] was -0.51, the “glycan array binding signal (z-score)” value [42] was -0.407 and the “glycan array binding signal (z-score)” value [43] was -0.188.
